# Laboratory results from the supplement of paper PMC8728848.
# The list shows a part of the results.
# B1: Als3-2 (Candida albicans) (protein)
# chain: KTITGVFNSFNSLTWSNAATYNYKGPGTPTWNAVLGWSLDGTSASPGDTFTLNMPCVFKFTTSQTSVDLTAHGVKYATCQFQAGEEFMTFSTLTCTVSNTLTPSIKALGTVTLPLAFNVGGTGSSVDLEDSKCFTAGTNTVTFNDGGKKISINVDFERSNVDPKGYLTD
# Tests used:
# Test in all cases: glycan array binding signal (z-score within array); higher = stronger binding
# Settings in all cases: glycan notation: IUPAC condensed, linker removed
# [1] = target: Fuc(a1-2)Gal6S(b1-3)GlcNAc6S
# In short: (§1)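 The Consortium for Functional Glycomics database supplied 3228 glycan arrays, of which those lacking an available protein sequence were dropped. The binding signal, a within-array Z-score, was averaged across arrays of the same protein sequence and across linkers. Negative scores can be read as non-binding.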
# [2] = target: Fuc(a1-2)Gal6S(b1-4)Glc
# In short: as §1
# [3] = target: Fuc(a1-2)Gal6S(b1-4)Glc6S
# In short: as §1
# [4] = target: Fuc(a1-2)[Gal(a1-3)]Gal
# In short: as §1
# [5] = target: Fuc(a1-2)[Gal(a1-3)]Gal(b1-3)GalNAc
# In short: as §1
# [6] = target: Fuc(a1-2)[Gal(a1-3)]Gal(b1-3)GalNAc(b1-3)Gal(a1-4)Gal(b1-4)Glc
# In short: as §1
# [7] = target: Fuc(a1-2)[Gal(a1-3)]Gal(b1-3)GlcNAc
# In short: as §1
# [8] = target: Fuc(a1-2)[Gal(a1-3)]Gal(b1-3)GlcNAc(b1-2)Man(a1-3)[Fuc(a1-2)[Gal(a1-3)]Gal(b1-3)GlcNAc(b1-2)Man(a1-6)]Man(b1-4)GlcNAc(b1-4)GlcNAc
# In short: as §1
# [9] = target: Fuc(a1-2)[Gal(a1-3)]Gal(b1-3)GlcNAc(b1-2)Man(a1-3)[Fuc(a1-2)[Gal(a1-3)]Gal(b1-3)GlcNAc(b1-2)Man(a1-6)]Man(b1-4)GlcNAc(b1-4)[Fuc(a1-6)]GlcNAc
# In short: as §1
# [10] = target: Fuc(a1-2)[Gal(a1-3)]Gal(b1-3)GlcNAc(b1-3)GalNAc
# In short: as §1
# [11] = target: Fuc(a1-2)[Gal(a1-3)]Gal(b1-3)GlcNAc(b1-6)GalNAc
# In short: as §1
# [12] = target: Fuc(a1-2)[Gal(a1-3)]Gal(b1-4)Glc
# In short: as §1
# [13] = target: Fuc(a1-2)[Gal(a1-3)]Gal(b1-4)GlcNAc
# In short: as §1
# [14] = target: Fuc(a1-2)[Gal(a1-3)]Gal(b1-4)GlcNAc(b1-2)Man
# In short: as §1
# [15] = target: Fuc(a1-2)[Gal(a1-3)]Gal(b1-4)GlcNAc(b1-2)Man(a1-3)[Fuc(a1-2)[Gal(a1-3)]Gal(b1-4)GlcNAc(b1-2)Man(a1-6)]Man(b1-4)GlcNAc(b1-4)GlcNAc
# In short: as §1
# [16] = target: Fuc(a1-2)[Gal(a1-3)]Gal(b1-4)GlcNAc(b1-2)Man(a1-3)[Fuc(a1-2)[Gal(a1-3)]Gal(b1-4)GlcNAc(b1-2)Man(a1-6)]Man(b1-4)GlcNAc(b1-4)[Fuc(a1-6)]GlcNAc
# In short: as §1
# [17] = target: Fuc(a1-2)[Gal(a1-3)]Gal(b1-4)GlcNAc(b1-3)GalNAc
# In short: as §1
# [18] = target: Fuc(a1-2)[Gal(a1-3)]Gal(b1-4)GlcNAc(b1-3)[Fuc(a1-2)[Gal(a1-3)]Gal(b1-4)GlcNAc(b1-6)]GalNAc
# In short: as §1
# [19] = target: Fuc(a1-2)[Gal(a1-3)]Gal(b1-4)GlcNAc(b1-6)GalNAc
# In short: as §1
# [20] = target: Fuc(a1-2)[Gal(a1-3)]Gal(b1-4)[Fuc(a1-3)]Glc
# In short: as §1
# [21] = target: Fuc(a1-2)[Gal(a1-3)]Gal(b1-4)[Fuc(a1-3)]GlcNAc
# In short: as §1
# [22] = target: Fuc(a1-2)[Gal(a1-3)]Gal(b1-4)[Fuc(a1-3)]GlcNAc(b1-3)GalNAc
# In short: as §1
# [23] = target: Fuc(a1-2)[Gal(a1-4)]Gal(b1-4)GlcNAc
# In short: as §1
# [24] = target: Fuc(a1-2)[GalNAc(a1-3)]Gal
# In short: as §1
# [25] = target: Fuc(a1-2)[GalNAc(a1-3)]Gal(b1-3)GalNAc(a1-3)[Fuc(a1-2)]Gal(b1-4)GlcNAc
# In short: as §1
# [26] = target: Fuc(a1-2)[GalNAc(a1-3)]Gal(b1-3)GalNAc(b1-3)Gal(a1-4)Gal(b1-4)Glc
# In short: as §1
# [27] = target: Fuc(a1-2)[GalNAc(a1-3)]Gal(b1-3)GlcNAc
# In short: as §1
# [28] = target: Fuc(a1-2)[GalNAc(a1-3)]Gal(b1-3)GlcNAc(b1-2)Man(a1-3)[Fuc(a1-2)[GalNAc(a1-3)]Gal(b1-3)GlcNAc(b1-2)Man(a1-6)]Man(b1-4)GlcNAc(b1-4)GlcNAc
# In short: as §1
# [29] = target: Fuc(a1-2)[GalNAc(a1-3)]Gal(b1-3)GlcNAc(b1-2)Man(a1-3)[Fuc(a1-2)[GalNAc(a1-3)]Gal(b1-3)GlcNAc(b1-2)Man(a1-6)]Man(b1-4)GlcNAc(b1-4)[Fuc(a1-6)]GlcNAc
# In short: as §1
# [30] = target: Fuc(a1-2)[GalNAc(a1-3)]Gal(b1-3)GlcNAc(b1-3)GalNAc
# In short: as §1
# [31] = target: Fuc(a1-2)[GalNAc(a1-3)]Gal(b1-3)GlcNAc(b1-6)GalNAc
# In short: as §1
# [32] = target: Fuc(a1-2)[GalNAc(a1-3)]Gal(b1-4)Glc
# In short: as §1
# [33] = target: Fuc(a1-2)[GalNAc(a1-3)]Gal(b1-4)GlcNAc
# In short: as §1
# [34] = target: Fuc(a1-2)[GalNAc(a1-3)]Gal(b1-4)GlcNAc(b1-2)Man
# In short: as §1
# [35] = target: Fuc(a1-2)[GalNAc(a1-3)]Gal(b1-4)GlcNAc(b1-2)Man(a1-3)[Fuc(a1-2)[GalNAc(a1-3)]Gal(b1-4)GlcNAc(b1-2)Man(a1-6)]Man(b1-4)GlcNAc(b1-4)GlcNAc
# In short: as §1
# [36] = target: Fuc(a1-2)[GalNAc(a1-3)]Gal(b1-4)GlcNAc(b1-2)Man(a1-3)[Fuc(a1-2)[GalNAc(a1-3)]Gal(b1-4)GlcNAc(b1-2)Man(a1-6)]Man(b1-4)GlcNAc(b1-4)[Fuc(a1-6)]GlcNAc
# In short: as §1
# [37] = target: Fuc(a1-2)[GalNAc(a1-3)]Gal(b1-4)GlcNAc(b1-3)Gal(b1-4)GlcNAc
# In short: as §1
# [38] = target: Fuc(a1-2)[GalNAc(a1-3)]Gal(b1-4)GlcNAc(b1-3)Gal(b1-4)GlcNAc(b1-3)Gal(b1-4)GlcNAc
# In short: as §1
# [39] = target: Fuc(a1-2)[GalNAc(a1-3)]Gal(b1-4)GlcNAc(b1-3)GalNAc
# In short: as §1
# [40] = target: Fuc(a1-2)[GalNAc(a1-3)]Gal(b1-4)GlcNAc(b1-3)[Fuc(a1-2)[GalNAc(a1-3)]Gal(b1-4)GlcNAc(b1-6)]GalNAc
# In short: as §1
# [41] = target: Fuc(a1-2)[GalNAc(a1-3)]Gal(b1-4)GlcNAc(b1-6)GalNAc
# In short: as §1
# [42] = target: Fuc(a1-2)[GalNAc(a1-3)]Gal(b1-4)[Fuc(a1-3)]GlcNAc
# In short: as §1
# [43] = target: Fuc(a1-2)[GalNAc(a1-3)]Gal(b1-4)[Fuc(a1-3)]GlcNAc(b1-3)GalNAc
# In short: as §1
# [44] = target: Fuc(a1-2)[GalNAc(a1-4)]Gal(b1-4)GlcNAc
# In short: as §1
# [45] = target: Fuc(a1-2)[GalNAc(b1-3)]Gal
# In short: as §1
binder,measurement,setting,value
B1,glycan array binding signal (z-score),[1],-0.47
same,glycan array binding signal (z-score),[2],-0.23
same,glycan array binding signal (z-score),[3],-0.311
same,glycan array binding signal (z-score),[4],0.677
same,glycan array binding signal (z-score),[5],0.234
same,glycan array binding signal (z-score),[6],0.038
same,glycan array binding signal (z-score),[7],-0.182
same,glycan array binding signal (z-score),[8],-0.563
same,glycan array binding signal (z-score),[9],-0.485
same,glycan array binding signal (z-score),[10],-0.68
same,glycan array binding signal (z-score),[11],-0.489
same,glycan array binding signal (z-score),[12],-0.338
same,glycan array binding signal (z-score),[13],-0.617
same,glycan array binding signal (z-score),[14],-0.167
same,glycan array binding signal (z-score),[15],0.294
same,glycan array binding signal (z-score),[16],-0.619
same,glycan array binding signal (z-score),[17],-0.717
same,glycan array binding signal (z-score),[18],-0.51
same,glycan array binding signal (z-score),[19],-0.42
same,glycan array binding signal (z-score),[20],-0.655
same,glycan array binding signal (z-score),[21],-0.289
same,glycan array binding signal (z-score),[22],-0.426
same,glycan array binding signal (z-score),[23],0.706
same,glycan array binding signal (z-score),[24],-0.387
same,glycan array binding signal (z-score),[25],-0.525
same,glycan array binding signal (z-score),[26],-0.184
same,glycan array binding signal (z-score),[27],-0.507
same,glycan array binding signal (z-score),[28],-0.487
same,glycan array binding signal (z-score),[29],-0.619
same,glycan array binding signal (z-score),[30],-0.233
same,glycan array binding signal (z-score),[31],-0.624
same,glycan array binding signal (z-score),[32],-0.679
same,glycan array binding signal (z-score),[33],-0.711
same,glycan array binding signal (z-score),[34],-0.4
same,glycan array binding signal (z-score),[35],-0.232
same,glycan array binding signal (z-score),[36],-0.622
same,glycan array binding signal (z-score),[37],-0.597
same,glycan array binding signal (z-score),[38],0.614
same,glycan array binding signal (z-score),[39],-0.444
same,glycan array binding signal (z-score),[40],-0.495
same,glycan array binding signal (z-score),[41],0.324
same,glycan array binding signal (z-score),[42],-0.465
same,glycan array binding signal (z-score),[43],2.21
same,glycan array binding signal (z-score),[44],-0.444
same,glycan array binding signal (z-score),[45],-0.226
